Experimental data as given in PubChem BioAssay AID1814 (Broad Institute, 2009).
In all, about 300,000 compounds went through this assay and about 22,000 (7.3%) were called active. The inconclusive results got no clear call from the source; some entries with a clear call stand among them for comparison. Rule as the data show it: active = activity score below about -60%; inconclusive = mostly about -28% to -61%; inactive = positive scores.

Assay: Activators via SNCA 5'UTR binding, MLPCN (AID 1814)
Conditions: alpha-synuclein 5'UTR reporter, activators screen; hits give low values; tested at 7.5 µM

Activity score, inconclusive:
CN(C)CCn1c(SCc2ccccc2C#N)nc2c(sc3ccccc32)c1=O -53.1%
C=CCn1c(SCc2c(F)cccc2Cl)nnc1-c1ccco1 -47.1%
Fc1ccc(N/N=C2/CC(c3ccccc3)Oc3ccccc32)c(F)c1 (configuration not stated) -55.9%
C=C(C)[C@@H]1CC=C(C(=O)O)CC1 -29.7%
C(=C\c1nnc(-c2cccs2)o1)/c1ccccc1 -52.9%
CC(C)(C)OC(=O)N/N=C\c1cccnc1 -66%
O=[N+]([O-])c1ccc(CSc2ncnc3ccccc23)cc1 -27.5%
CCOC(=O)CN1N=C(/C=C/c2ccc(C(C)C)cc2)CCC1=O -31.7%
Clc1ccc(N=C2SCCS2)cc1 -60.7%
CN(CCCNC(=O)c1cccn2c(=O)c3ccccc3nc12)Cc1ccccc1 -58.5%
O=C(Nc1ccc2c(c1)OCCO2)C1CCCN1C(=O)Nc1ccc(F)cc1 (configuration not stated) -38.1%
CCCOc1ccc(OCCOCCN2CCc3ccccc3C2)cc1 -34.6%
O=C(/C=C\c1cccs1)c1c(O)ccc2ccc(=O)oc12 -61.2%

Activity score, active:
Cc1ccc(NC(=O)c2ccc(CSc3nnc(C)s3)cc2)c(C)c1 -68.2%
CSc1nc(Cl)cc(Nc2ccc(O)cc2)n1 -78.7%
CCOc1ccc(/C=N/NC(N)=S)cc1 -63.3%
O=C(Nc1ccc(-c2csc(Nc3ccccc3)n2)cc1)c1ccccc1 -86.9%
COc1ccc(NC(=O)n2ncc3c(C)cccc32)cc1 -88.4%

Activity score, inactive:
O=C(/C=C/Nc1ccccc1Br)c1ccccn1 114%
CC(C)C(=O)NC(c1ccc(Cl)cc1Cl)c1ccc2cccnc2c1O (configuration not stated) 92.3%
COc1ccc(Cc2nc(-c3ccc(NC(=O)c4cccnc4)cc3)no2)cc1 75.1%
Nc1c(C(=O)Nc2ccc(S(=O)(=O)N3CCCC3)cc2)sc2nc3ccc(OC(F)(F)F)cc3cc12 109%
CCOC(=O)N1CCN(S(=O)(=O)c2ccc(C(=O)NNc3nc4ccc(Cl)cc4s3)cc2)CC1 67.1%
Oc1ccccc1C(Nc1nccs1)c1ccc2cccnc2c1O (configuration not stated) 76.9%
O=C(O)c1cccc(N/N=C/c2cccs2)c1 95.8%
CC(=O)n1cc(N(C(=O)CCl)c2ccccc2)c2ccccc21 106%
CC(C)Oc1ccc(C(=O)Nc2nnc(SCC(=O)N3CCOCC3)s2)cc1 97.7%
